By inhibition is commonly meant the change of the read-out against control, counted positive when it falls.

The source of these data is ChEMBL document CHEMBL1961873, “Compounds: GSK PKIS; Assays: Nanosyn kinase panel” (2012).

Each structure is given as a SMILES string. The list shows a part of the results, in another mix than the full data.

The first experiment deals with Sphingosine kinase 1 (Homo sapiens) (UniProt Q9NYA1). As to conditions: at 1 µM.
UniProt Q9NYA1, sequence (Q9NYA1 whole entry): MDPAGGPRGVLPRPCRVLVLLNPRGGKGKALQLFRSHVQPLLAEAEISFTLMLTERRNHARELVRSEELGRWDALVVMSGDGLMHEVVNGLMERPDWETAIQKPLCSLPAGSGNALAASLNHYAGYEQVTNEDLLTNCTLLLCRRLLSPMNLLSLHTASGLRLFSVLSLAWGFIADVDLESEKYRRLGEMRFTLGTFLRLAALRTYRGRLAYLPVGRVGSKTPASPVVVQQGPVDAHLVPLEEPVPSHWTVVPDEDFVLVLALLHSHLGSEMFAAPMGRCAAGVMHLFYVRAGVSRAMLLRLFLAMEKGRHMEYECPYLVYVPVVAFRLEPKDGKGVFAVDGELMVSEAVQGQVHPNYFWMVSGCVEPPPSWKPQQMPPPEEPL
As to `COc1ccccc1Oc1nccc(-c2c(-c3ccc(F)cc3)ncn2C2CCNCC2)n1`, the inhibition was -2.01%.
Take `Fc1ccc(Oc2nccc(-c3c(-c4ccc(F)cc4)ncn3C3CCNCC3)n2)cc1`: the inhibition turned out to be 3.61%.
In the case of `Fc1ccc(-c2ncn(C3CCNCC3)c2-c2ccnc(Oc3ccc(Cl)cc3)n2)cc1`, the inhibition was 0.16%.
`O=C1NC(=O)C(c2cccc([N+](=O)[O-])c2)=C1Nc1cc(Cl)c(O)c(Cl)c1`: the inhibition turned out to be 0.61%.
Take `O=C(O)c1ccc(Oc2nccc(-c3c(-c4ccc(F)cc4)ncn3C3CCNCC3)n2)cc1`: the inhibition came out at 2.97%.
On to `CC(C)(C)c1ccc(Oc2nccc(-c3c(-c4ccc(F)cc4)ncn3C3CCNCC3)n2)cc1`, for which the inhibition was 1.2%.
Still for that read-out and setting: in the case of `O=C1NC(=O)C(c2ccccc2Cl)=C1Nc1cc(Cl)c(O)c(Cl)c1` it was -3.04%; in that of `COc1ccccc1C1=C(Nc2ccccc2)C(=O)NC1=O`, -3.46%; in that of `Cc1cccc(Oc2nccc(-c3c(-c4ccc(F)cc4)ncn3C3CCNCC3)n2)c1C`, 0.59%.
`NC(=O)CCc1ccccc1Oc1nccc(-c2c(-c3ccc(F)cc3)ncn2C2CCNCC2)n1`: the inhibition stood at 4.2%.
As to `O=C1NC(=O)C(c2ccccc2)=C1Nc1ccccc1`, the inhibition was -4.67%.
The same measure, in the same setting: to `Fc1ccc(-c2ncn(C3CCNCC3)c2-c2ccnc(Oc3cccc(C(F)(F)F)c3)n2)cc1` belongs -2.4%.
For the compound `CS(=O)(=O)c1ccc(Oc2nccc(-c3c(-c4ccc(F)cc4)ncn3C3CCNCC3)n2)cc1`, the inhibition was determined as 0.83%.
`Fc1ccc(-c2ncn(C3CCNCC3)c2-c2ccnc(Oc3cccc(F)c3)n2)cc1`: the inhibition stood at 0.83%.

Another experiment has as its target T1, Sphingosine kinase 2 (Homo sapiens) (UniProt Q9NRA0).
T1 sequence (whole entry): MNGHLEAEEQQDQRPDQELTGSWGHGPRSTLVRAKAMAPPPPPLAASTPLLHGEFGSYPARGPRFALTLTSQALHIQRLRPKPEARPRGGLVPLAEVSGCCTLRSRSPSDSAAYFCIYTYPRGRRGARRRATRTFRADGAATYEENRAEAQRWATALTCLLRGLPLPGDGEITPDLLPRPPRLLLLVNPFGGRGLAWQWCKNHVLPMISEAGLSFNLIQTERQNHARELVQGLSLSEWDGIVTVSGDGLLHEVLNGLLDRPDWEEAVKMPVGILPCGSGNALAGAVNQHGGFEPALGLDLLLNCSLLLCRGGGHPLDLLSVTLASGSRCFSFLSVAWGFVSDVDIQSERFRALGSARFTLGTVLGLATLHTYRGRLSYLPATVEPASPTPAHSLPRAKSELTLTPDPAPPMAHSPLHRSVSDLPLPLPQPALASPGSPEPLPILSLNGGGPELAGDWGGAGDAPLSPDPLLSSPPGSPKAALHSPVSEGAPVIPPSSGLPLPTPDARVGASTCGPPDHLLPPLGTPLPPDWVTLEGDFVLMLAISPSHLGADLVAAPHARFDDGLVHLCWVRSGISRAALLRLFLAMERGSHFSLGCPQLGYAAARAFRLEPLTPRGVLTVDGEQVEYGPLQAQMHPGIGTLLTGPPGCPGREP
The following applies: at 0.1 µM.
With `COc1ccccc1Oc1nccc(-c2c(-c3ccc(F)cc3)ncn2C2CCNCC2)n1`, the inhibition is -0.64%.
`Fc1ccc(Oc2nccc(-c3c(-c4ccc(F)cc4)ncn3C3CCNCC3)n2)cc1`: the inhibition is -1.08%.
As to `Fc1ccc(-c2ncn(C3CCNCC3)c2-c2ccnc(Oc3ccc(Cl)cc3)n2)cc1`, the inhibition was 1.2%.
`O=C1NC(=O)C(c2cccc([N+](=O)[O-])c2)=C1Nc1cc(Cl)c(O)c(Cl)c1`: the inhibition was -2.47%.
Same read-out and setting: to `O=C(O)c1ccc(Oc2nccc(-c3c(-c4ccc(F)cc4)ncn3C3CCNCC3)n2)cc1` belongs -0.97%.
For the compound `CC(C)(C)c1ccc(Oc2nccc(-c3c(-c4ccc(F)cc4)ncn3C3CCNCC3)n2)cc1`, the inhibition is 0%.
In the case of `O=C1NC(=O)C(c2ccccc2Cl)=C1Nc1cc(Cl)c(O)c(Cl)c1`, the inhibition is -0.55%.
For `COc1ccccc1C1=C(Nc2ccccc2)C(=O)NC1=O`, the inhibition came to 0.43%.
Still for that read-out and setting: to `Cc1cccc(Oc2nccc(-c3c(-c4ccc(F)cc4)ncn3C3CCNCC3)n2)c1C` belongs 0.27%.
On the same count and under the same terms, to `NC(=O)CCc1ccccc1Oc1nccc(-c2c(-c3ccc(F)cc3)ncn2C2CCNCC2)n1` belongs 0.25%; to `O=C1NC(=O)C(c2ccccc2)=C1Nc1ccccc1`, 0.02%; to `Fc1ccc(-c2ncn(C3CCNCC3)c2-c2ccnc(Oc3cccc(C(F)(F)F)c3)n2)cc1`, -0.49%.
In the case of `CS(=O)(=O)c1ccc(Oc2nccc(-c3c(-c4ccc(F)cc4)ncn3C3CCNCC3)n2)cc1`, the inhibition worked out at 0.29%.
As to `Fc1ccc(-c2ncn(C3CCNCC3)c2-c2ccnc(Oc3cccc(F)c3)n2)cc1`, the inhibition is -1.23%.

A further experiment has as its target T1, Sphingosine kinase 2 (Homo sapiens). The following applies: at 1 µM.
In the case of `COc1ccccc1Oc1nccc(-c2c(-c3ccc(F)cc3)ncn2C2CCNCC2)n1`, the inhibition was determined as 0.85%.
Consider `Fc1ccc(Oc2nccc(-c3c(-c4ccc(F)cc4)ncn3C3CCNCC3)n2)cc1`, for which the inhibition is -1.86%.
In the case of `Fc1ccc(-c2ncn(C3CCNCC3)c2-c2ccnc(Oc3ccc(Cl)cc3)n2)cc1`, the inhibition was determined as 0%.
Take `O=C1NC(=O)C(c2cccc([N+](=O)[O-])c2)=C1Nc1cc(Cl)c(O)c(Cl)c1`: the inhibition stood at 1.43%.
Consider `O=C(O)c1ccc(Oc2nccc(-c3c(-c4ccc(F)cc4)ncn3C3CCNCC3)n2)cc1`, for which the inhibition was -0.93%.
Same read-out and setting: in the case of `CC(C)(C)c1ccc(Oc2nccc(-c3c(-c4ccc(F)cc4)ncn3C3CCNCC3)n2)cc1` it was 2.76%; in that of `O=C1NC(=O)C(c2ccccc2Cl)=C1Nc1cc(Cl)c(O)c(Cl)c1`, -2%; in that of `COc1ccccc1C1=C(Nc2ccccc2)C(=O)NC1=O`, 1.28%.
Regarding `Cc1cccc(Oc2nccc(-c3c(-c4ccc(F)cc4)ncn3C3CCNCC3)n2)c1C`, the inhibition amounted to 0.26%.
For `NC(=O)CCc1ccccc1Oc1nccc(-c2c(-c3ccc(F)cc3)ncn2C2CCNCC2)n1`, the inhibition worked out at 0.79%.
Turning to `O=C1NC(=O)C(c2ccccc2)=C1Nc1ccccc1`, the inhibition is -2.23%.
In the case of `Fc1ccc(-c2ncn(C3CCNCC3)c2-c2ccnc(Oc3cccc(C(F)(F)F)c3)n2)cc1`, the inhibition is -0.15%.
For the compound `CS(=O)(=O)c1ccc(Oc2nccc(-c3c(-c4ccc(F)cc4)ncn3C3CCNCC3)n2)cc1`, the inhibition is 4.56%.
As for `Fc1ccc(-c2ncn(C3CCNCC3)c2-c2ccnc(Oc3cccc(F)c3)n2)cc1`, the inhibition was found to be 0.67%.

The next experiment has as its target Casein kinase II subunit alpha (Homo sapiens) (UniProt P68400). As to conditions: at 0.1 µM.
UniProt P68400, sequence (P68400 whole entry, looked up): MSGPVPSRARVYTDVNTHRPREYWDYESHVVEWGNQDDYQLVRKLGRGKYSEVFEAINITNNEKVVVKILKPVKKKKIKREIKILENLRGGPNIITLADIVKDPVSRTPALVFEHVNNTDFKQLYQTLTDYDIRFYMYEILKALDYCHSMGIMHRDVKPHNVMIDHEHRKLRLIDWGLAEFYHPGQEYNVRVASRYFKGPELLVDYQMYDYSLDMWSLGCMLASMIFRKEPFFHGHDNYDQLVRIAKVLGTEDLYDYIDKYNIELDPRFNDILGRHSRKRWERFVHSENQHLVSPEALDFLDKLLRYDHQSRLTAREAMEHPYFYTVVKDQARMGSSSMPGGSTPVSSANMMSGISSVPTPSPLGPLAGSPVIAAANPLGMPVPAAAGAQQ
As for `COc1ccccc1Oc1nccc(-c2c(-c3ccc(F)cc3)ncn2C2CCNCC2)n1`, the inhibition worked out at 3.37%.
`Fc1ccc(Oc2nccc(-c3c(-c4ccc(F)cc4)ncn3C3CCNCC3)n2)cc1`: the inhibition was 6.48%.
With `Fc1ccc(-c2ncn(C3CCNCC3)c2-c2ccnc(Oc3ccc(Cl)cc3)n2)cc1`, the inhibition worked out at 2.72%.
On the same count and under the same terms, to `O=C1NC(=O)C(c2cccc([N+](=O)[O-])c2)=C1Nc1cc(Cl)c(O)c(Cl)c1` belongs 9.34%.
In the case of `O=C(O)c1ccc(Oc2nccc(-c3c(-c4ccc(F)cc4)ncn3C3CCNCC3)n2)cc1`, the inhibition was 4.63%.
As for `CC(C)(C)c1ccc(Oc2nccc(-c3c(-c4ccc(F)cc4)ncn3C3CCNCC3)n2)cc1`, the inhibition worked out at 10.3%.
Regarding `O=C1NC(=O)C(c2ccccc2Cl)=C1Nc1cc(Cl)c(O)c(Cl)c1`, the inhibition was found to be 3%.
`COc1ccccc1C1=C(Nc2ccccc2)C(=O)NC1=O`: the inhibition was determined as 4.37%.
With `NC(=O)CCc1ccccc1Oc1nccc(-c2c(-c3ccc(F)cc3)ncn2C2CCNCC2)n1`, the inhibition was 4.11%.
As to `O=C1NC(=O)C(c2ccccc2)=C1Nc1ccccc1`, the inhibition was 3.12%.
Consider `Fc1ccc(-c2ncn(C3CCNCC3)c2-c2ccnc(Oc3cccc(C(F)(F)F)c3)n2)cc1`, for which the inhibition worked out at 12%.
Same read-out and setting: to `CS(=O)(=O)c1ccc(Oc2nccc(-c3c(-c4ccc(F)cc4)ncn3C3CCNCC3)n2)cc1` belongs 3.58%; to `Fc1ccc(-c2ncn(C3CCNCC3)c2-c2ccnc(Oc3cccc(F)c3)n2)cc1`, 6.47%.
